Test results reported in the supplement of paper PMC7826260.
Some of the results follow. The data describe in vitro nicking of single-stranded DNA by Rep domains at 3 µM enzyme and 37 °C for 1 h; the strands have 90 letters, of which the middle is given. Numbers give uncut DNA relative to the enzyme-free pool, as log2; uncut sequences lie near 0, cut ones below; no hit call is given. The scaling is to total reads; where an enzyme cuts many sequences, the uncut ones exceed 0.

What was measured:
Experiment in all cases: uncleaved DNA left, log2 of reads against the no-enzyme library (log2 ratio); higher = less cleavage (more negative = more Rep cleavage of the k-mer); sequences stand for … in CTCGTCCG…ACCGGAGA
[1] = tested on: T1, Rep nickase domain of Muscovy duck circovirus
T1 sequence (protein, residues 1-111, tag omitted): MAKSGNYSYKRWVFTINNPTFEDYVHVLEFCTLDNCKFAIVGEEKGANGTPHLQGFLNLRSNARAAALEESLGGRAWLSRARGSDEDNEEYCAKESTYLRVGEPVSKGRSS
Procedure: (§1)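 A pool of 90-nt single-stranded DNAs with seven random bases just before the constant AC of the nick site (name = the seven bases) was cut by 3 µM recombinant His6-SUMO-tagged Rep nickase domain (300 nM DNA, 50 mM HEPES pH 8.0, 50 mM NaCl, 1 mM MnCl2, 1 h, 37 °C, three replicates). Uncut DNA was amplified and sequenced.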

[2] = tested on: T2, Rep nickase domain of banana bunchy top virus
T2 sequence (protein, residues 1-94, tag omitted): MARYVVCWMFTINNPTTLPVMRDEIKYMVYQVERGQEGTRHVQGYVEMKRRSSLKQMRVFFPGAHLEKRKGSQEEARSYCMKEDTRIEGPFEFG
Procedure: as §1

[3] = tested on: T3, Rep nickase domain of cabbage leaf curl virus
T3 sequence (protein, residues 1-116, tag omitted): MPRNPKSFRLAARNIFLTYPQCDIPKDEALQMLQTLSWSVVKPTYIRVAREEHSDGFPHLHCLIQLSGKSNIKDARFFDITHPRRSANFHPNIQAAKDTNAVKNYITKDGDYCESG
Procedure: as §1

[4] = tested on: T4, Rep nickase domain of chickpea chlorotic dwarf virus
T4 sequence (protein, residues 1-124, tag omitted): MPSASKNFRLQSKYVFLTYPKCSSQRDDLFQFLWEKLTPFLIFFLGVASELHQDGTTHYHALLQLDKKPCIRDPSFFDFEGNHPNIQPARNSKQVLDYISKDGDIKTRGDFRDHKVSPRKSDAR
Procedure: as §1

[5] = tested on: T5, Rep nickase domain of faba bean necrotic yellows virus
T5 sequence (protein, residues 1-98, tag omitted): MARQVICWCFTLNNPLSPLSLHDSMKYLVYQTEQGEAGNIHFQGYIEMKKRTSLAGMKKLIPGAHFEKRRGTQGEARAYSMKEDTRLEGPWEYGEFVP
Procedure: as §1

[6] = tested on: T6, Rep nickase domain of maize striate mosaic virus
T6 sequence (protein, residues 1-117, tag omitted): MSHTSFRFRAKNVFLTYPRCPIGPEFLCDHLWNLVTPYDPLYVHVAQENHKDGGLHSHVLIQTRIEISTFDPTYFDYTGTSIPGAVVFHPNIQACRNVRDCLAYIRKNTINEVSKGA
Procedure: as §1

[7] = tested on: T7, Rep nickase domain of porcine circovirus 2
T7 sequence (protein, residues 2-116, tag omitted): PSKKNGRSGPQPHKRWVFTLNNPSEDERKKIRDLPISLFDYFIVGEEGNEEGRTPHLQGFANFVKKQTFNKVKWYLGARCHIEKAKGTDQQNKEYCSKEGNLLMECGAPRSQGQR
Procedure: as §1

[8] = tested on: T8, Rep nickase domain of tomato golden mosaic virus
T8 sequence (protein, residues 1-124, tag omitted): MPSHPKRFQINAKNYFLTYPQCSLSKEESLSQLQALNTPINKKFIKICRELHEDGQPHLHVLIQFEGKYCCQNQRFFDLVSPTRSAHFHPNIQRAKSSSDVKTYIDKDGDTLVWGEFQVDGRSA
Procedure: as §1

[9] = tested on: T9, Rep nickase domain of tomato yellow leaf curl virus
T9 sequence (protein, residues 1-136, tag omitted): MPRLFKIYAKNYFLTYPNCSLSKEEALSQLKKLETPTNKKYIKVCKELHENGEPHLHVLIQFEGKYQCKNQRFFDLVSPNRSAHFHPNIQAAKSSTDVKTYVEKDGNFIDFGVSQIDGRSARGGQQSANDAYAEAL
Procedure: as §1

[10] = tested on: T10, Rep nickase domain of wheat dwarf virus
T10 sequence (protein, residues 1-137, tag omitted): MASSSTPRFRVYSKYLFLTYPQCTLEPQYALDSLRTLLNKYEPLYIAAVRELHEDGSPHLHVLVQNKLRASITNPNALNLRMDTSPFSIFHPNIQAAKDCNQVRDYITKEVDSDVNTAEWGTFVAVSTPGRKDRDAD
Procedure: as §1

Sequence	uncleaved DNA left (log2) [1]	uncleaved DNA left (log2) [2]	uncleaved DNA left (log2) [3]	uncleaved DNA left (log2) [4]	uncleaved DNA left (log2) [5]	uncleaved DNA left (log2) [6]	uncleaved DNA left (log2) [7]	uncleaved DNA left (log2) [8]	uncleaved DNA left (log2) [9]	uncleaved DNA left (log2) [10]
ACAGTTG	0.0778	-0.0104	-0.622	-0.38	0.13	-0.74	0.277	0.00657	0.0152	0.0323
AGTGCCA	-0.00975	0.101	0.105	0.338	0.0499	0.653	-0.0831	0.103	0.00672	0.0236
TCGGTTA	0.207	0.0754	0.384	0.0294	0.281	0.612	0.0863	0.212	0.145	0.297
GGTTACA	0.0554	0.132	0.522	1.05	0.0426	1.97	0.149	0.0471	0.0858	0.124
CTCCCGC	-0.00783	0.0023	-0.388	-0.645	-0.0162	-0.662	0.157	-0.071	-0.00102	-0.0587
TGAGACA	0.124	0.158	0.574	1.06	0.0845	1.7	0.22	0.0929	0.0851	0.108
TTACAGG	-0.00415	-0.0815	0.344	0.979	-0.119	1.44	0.0235	0.0394	-0.0972	0.0121
ACTATGC	-0.0652	-0.0283	-0.708	-0.561	-0.0844	-1.18	0.0527	-0.0593	-0.0178	-0.138
GAGTTTG	0.0226	-0.0418	-0.19	-0.163	-0.181	-0.543	-1.19	-0.066	-0.13	-0.152
CGCGTCA	0.161	0.00808	-0.075	-0.546	-0.0857	-0.323	0.0615	0.106	-0.0223	-0.0532
TACCATT	0.0552	-0.142	-1.38	-2.86	0.0742	-1.04	-3.06	-0.217	-0.0167	-0.125
TTCACAA	0.107	0.118	0.294	-0.1	-0.0575	0.25	0.0765	0.0148	0.0815	0.232
CTGGCTT	0.0533	-0.197	-0.239	-1.3	-0.0336	0.0286	-0.389	-0.294	-0.0469	-0.185
CACGGCG	-0.154	-0.129	-0.784	0.169	-0.221	-0.527	0.0338	-0.189	-0.132	-0.179
CCCCAAG	-0.254	-0.0196	-0.866	-0.319	-0.213	-1.18	-0.0965	-0.0989	0.0172	-0.111
TAAGGTG	0.193	0.0489	0.109	0.319	0.155	0.312	0.179	0.159	-0.0823	0.0397
TCTCTTG	-0.0344	-0.0599	-0.225	-1.42	0.024	-0.95	0.0749	-0.011	0.0524	-0.0993
CGTGTGG	-0.0408	-0.0803	0.0838	0.448	-0.0954	0.0942	0.0294	-0.0357	-0.199	-0.163
GGTCTAG	0.0317	-0.00949	0.16	0.166	0.0474	-0.187	0.0851	0.024	0.0631	0.121
ATATTCC	-0.0389	-0.0355	-0.0248	-0.134	-0.0535	-0.451	-0.468	-0.076	-0.049	-0.0331
ATGGAGT	0.0129	0.00997	0.121	0.967	-0.065	0.968	0.122	-0.00553	-0.211	-0.0444

Sequence	uncleaved DNA left (log2) [1]	uncleaved DNA left (log2) [2]	uncleaved DNA left (log2) [3]	uncleaved DNA left (log2) [4]	uncleaved DNA left (log2) [5]	uncleaved DNA left (log2) [6]	uncleaved DNA left (log2) [7]	uncleaved DNA left (log2) [8]	uncleaved DNA left (log2) [9]	uncleaved DNA left (log2) [10]
GTGATCA	0.114	0.232	0.431	1.08	-0.00192	1.94	0.142	0.0434	0.192	0.21
GTATCGA	0.0284	0.0158	0.14	0.532	-0.0545	0.401	0.0711	0.0236	0.00317	0.0315
TATTAGC	0.109	-0.000729	-0.46	-0.81	0.0188	-1.15	0.13	0.0635	0.176	0.0884
TAACCTT	-0.201	-0.156	-3.69	-3.31	-0.0691	-1.84	-1.35	-2.16	-0.0915	-3.43
AACTACG	-0.00439	0.154	-0.815	-0.74	0.119	-1.01	0.0822	0.0416	-0.0778	-0.0264
ACTCCAA	0.122	0.0488	0.0231	-0.165	0.122	-0.484	0.00534	0.0857	-0.0363	0.213
ATGCGTG	0.0387	0.0801	-0.486	-0.304	-0.125	-0.923	0.0572	0.019	-0.00695	0.00267
TTCGACC	0.0447	0.0561	-0.0319	-0.0264	0.0815	-0.858	-0.0185	-0.0526	-0.0622	-0.104
TTCTTAT	-0.532	0.00539	0.274	-0.525	0.202	-0.157	-1.84	0.0835	0.0659	0.102
TAACCCA	-0.322	0.0405	-1.4	-3.01	-0.0346	-0.736	-1.52	-0.196	0.0383	-0.532
GTTCTAT	0.00935	0.111	0.339	0.884	-0.0686	1.76	0.122	0.0219	0.1	0.0464
GCTTACG	-0.0429	-0.00345	-0.784	-0.662	-0.0646	-0.961	0.117	-0.0413	-0.0775	-0.188
TCCTTCG	0.0503	-0.0543	-0.731	-0.181	0.0153	-1.07	0.047	-0.0723	-0.122	-0.0923
ACCTTGT	-0.0637	0.0419	-0.68	-0.728	-0.0111	-1.23	-0.413	0.0569	-0.00543	-0.199
CGTTCAG	0.00288	0.0867	-0.612	-0.453	0.0783	-0.966	0.16	0.00416	0.0104	-0.135
GCTCTGG	-0.0228	-0.0864	0.0513	0.476	0.0128	-0.152	0.0738	-0.133	-0.0039	-0.0885
CAATCCT	-2.36	-0.227	-4.06	-3.56	-0.0213	-2.98	-3.78	-3.62	-0.149	-3.65
TATGACG	-0.183	-0.18	-0.912	-0.705	-0.156	-1.34	-0.0205	-0.2	-0.078	-0.278
CCGATTG	0.0443	-0.105	-0.0271	0.621	-0.0508	1.14	-0.0621	-0.0759	-0.193	-0.105
ACGTAAT	-1.26	-0.303	-0.615	-0.992	-0.459	-0.709	-3.71	-0.0758	-0.29	-0.305
ACCACCA	-0.213	-0.208	-0.288	-1.37	-0.102	-0.848	-0.269	-0.115	-0.184	-0.115

Sequence	uncleaved DNA left (log2) [1]	uncleaved DNA left (log2) [2]	uncleaved DNA left (log2) [3]	uncleaved DNA left (log2) [4]	uncleaved DNA left (log2) [5]	uncleaved DNA left (log2) [6]	uncleaved DNA left (log2) [7]	uncleaved DNA left (log2) [8]	uncleaved DNA left (log2) [9]	uncleaved DNA left (log2) [10]
TTATCAC	-0.0769	0.104	0.322	0.301	-0.18	0.311	-0.0876	-0.093	0.0566	0.109
GCGCATT	-0.0141	-0.169	0.524	1.18	-0.0399	1.64	-0.0358	-0.146	-0.043	0.089
TAATGGT	-2.7	-0.299	-4.39	-2.4	-0.0568	-2.93	-3.7	-3.78	-1.3	-3.94
AGAGGCT	0.0581	0.0143	0.106	0.626	0.0938	1.22	0.16	0.145	-0.0398	0.168
CTTCGAA	-0.0734	-0.101	-0.228	-0.595	-0.00818	-0.993	0.0263	-0.0452	-0.121	-0.0302
ATGTATG	0.0205	-0.0709	-0.449	-0.499	-0.0411	-1.12	0.00267	-0.0601	-0.186	-0.0609
GGACTCG	0.132	-0.00715	-0.029	0.281	0.027	0.148	0.0749	-0.0304	0.0507	-0.000487
TTCGGAT	-0.0709	-0.136	0.183	1.29	-0.0933	1.65	-0.00415	-0.079	-0.271	-0.129
ACCTGAG	0.238	0.133	-0.251	0.804	0.157	-0.121	0.232	0.147	0.361	0.114
GTTCGCC	0.00832	0.00302	0.215	0.699	-0.122	0.935	-0.0944	0.0199	-0.019	-0.0604
TCATTTC	0.0199	-0.000387	-0.237	-0.72	-0.176	-1.19	-0.0376	-0.0264	-0.0139	-0.0763
CTCTCTG	-0.0329	-0.0621	-0.269	-0.31	-0.049	-0.669	-0.0552	-0.0664	-0.166	-0.0435
AGTGTTG	0.203	0.146	0.0984	0.568	-0.00546	1.13	0.172	0.191	0.0845	0.126
CGATCTA	0.0221	-0.0901	-0.00397	0.139	-0.12	0.871	-0.125	-0.184	-0.0535	0.0413
CGGGCGA	0.147	0.169	-0.234	0.0447	0.164	-0.0823	0.249	0.0676	0.0813	0.0345
TGCCCGC	0.0862	0.119	0.336	0.269	0.0459	0.221	0.0257	-0.0065	0.081	0.084
GTACGAA	0.114	0.0604	0.309	0.768	-0.00231	1.33	0.184	0.131	0.111	0.0928
AACTAGA	0.043	0.00853	-0.254	-0.697	-0.0946	-0.985	-0.702	0.0108	-0.0928	-0.0248
ATCCGTC	-0.0388	-0.0633	-0.137	-0.165	-0.144	-0.711	0.0056	-0.0215	0.0325	-0.204
TGAACTT	-0.0657	-0.0597	0.15	-1.48	-0.0321	0.566	-0.272	-0.118	0.067	0.012
